Source: US20260193317A1, “COMBINATION THERAPY WITH ACTRIIB RECEPTOR VARIANTS AND GLP-1 AGONISTS” (35PHARMA Inc., priority 2023, published 2026)

Columns and labels:
[1] = molecular target: T1, BMP-9 (Homo sapiens, UniProt Q9UK05); assay: Small-scale BMP-9 ELISA with CHO supernatants; assay type: binding; conditions: BMP-9 10 ng/mL
T1 sequence (Q9UK05 320-429): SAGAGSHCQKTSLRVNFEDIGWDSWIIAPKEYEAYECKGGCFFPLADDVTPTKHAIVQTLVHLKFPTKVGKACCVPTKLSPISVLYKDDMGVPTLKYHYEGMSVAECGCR

[2] = system: TGFβ superfamily ligands; assay: Neutralization profile across TGFβ superfamily ligands (HEK293 and HepG2 reporter assays, summary); assay type: cell-based, human

- BMP-9 binding, ELISA signal relative to P75 [1]: near-undetectable binding to BMP-9
B1: P1373: hActRIIB L33W, 19 aa linker, IgG1-DL Fc; SEQ ID 232 (protein)
chain: ETRECIYYNANWELERTNQSGLERCEGEQDKRWHCYASWRNSSGTIELVKKGCWLDDFNCYDRQECVATEENPQVYFCCCEGNFCNERFTHLPEAGGPEVTYEPPPTGGGGSGGGGSGGGGSGG[human IgG1 Fc and a few adjoining residues not spelt out]
- improved potency on activin A, GDF-8, and GDF-11 relative to P75 [2]: ~ 4 fold
